Results from patent publication US5440016A, “Peptides of the formula (KFmoc) ZZZ and their uses” (priority 1993, dated 1995).
In brackets after ≈: the same amount, converted by molar mass. Where two headings read alike, the source gives them in different places. Part of at least one peptide drawing is inferred or uncertain, most often the ends. Square brackets hold non-standard residues; d marks the D form. Peptide text beside a SMILES is read from it. * marks the point of attachment. Phe(4-NO2) = N[C@@H](Cc1ccc([N+](=O)[O-])cc1)C(=O)O; Fmoc = O=C(OCC1c2ccccc2-c2ccccc21)*; Nle = CCCC[C@H](N)C(=O)O; Orn = NCCC[C@H](N)C(=O)O; Thz = O=C(O)[C@@H]1CSCN1; Nva = CCC[C@H](N)C(=O)O; Aib = CC(C)(N)C(=O)O; GABA = NCCCC(=O)O

How the values were obtained:
[1] = tested on: Candida albicans ATCC 10231
[2] = tested on: Streptococcus sanguis ATCC 10556
[3] = tested on: Escherichia coli ATCC 25922
[4] = tested on: Staphylococcus aureus ATCC 29213
[5] = Tables 2-5, concentration necessary to inhibit 50% growth
[6] = Tables 15-17, lower parts (unnatural amino acids)
[7] = Tables 11-13, lower parts (unnatural amino acids)
[8] = Tables 3-5, lower parts (unnatural amino acids)
[9] = Tables 7-9, lower parts (unnatural amino acids)

NCCCC[C@H](NC(=O)OCC1c2ccccc2-c2ccccc21)C(=O)N[C@@H](Cc1c[nH]c2ccccc12)C(=O)N[C@@H](CCCCN)C(=O)N[C@@H](CS)C(N)=O [(KFmoc)WKC-NH2] (Fmoc-KWKC-NH2)
IC50 against C. albicans ([1]; Tables 14-17): 269 µg/mL (≈ 343 µM)
IC50 against S. sanguis ([2]; Tables 10-13): 4 µg/mL (≈ 5.1 µM)
IC50 against E. coli [3, 5]: 28 µg/mL (≈ 35.7 µM)
IC50 against S. aureus ([4]; Tables 6-9): 4 µg/mL (≈ 5.1 µM)

CC[C@@H](C)[C@@H](NC(=O)[C@@H](CS)NC(=O)[C@H](CCCCN)NC(=O)OCC1c2ccccc2-c2ccccc21)C(=O)N[C@@H](CCCN)C(N)=O [(KFmoc)ci(Orn)-NH2] (Fmoc-K[dC][dI][Orn]-NH2)
IC50 against C. albicans [1, 6]: 115 μg/m
IC50 against S. sanguis [2, 7]: 2 μg/m
IC50 against E. coli [3, 8]: 31 μg/m
IC50 against S. aureus [4, 9]: 4 μg/m

NCCCC[C@H](NC(=O)OCC1c2ccccc2-c2ccccc21)C(=O)N[C@@H](Cc1c[nH]c2ccccc12)C(=O)N[C@H](Cc1ccccc1)C(=O)N1CSC[C@H]1C(N)=O [(KFmoc)Wf(Thiopro)-NH2] (Fmoc-KW[dF][Thz]-NH2)
IC50 against C. albicans [1, 6]: 171 μg/m
IC50 against S. sanguis [2, 7]: 3 μg/m
IC50 against E. coli [3, 8]: 16 μg/m
IC50 against S. aureus [4, 9]: 3 μg/m

NCCCC[C@H](NC(=O)OCC1c2ccccc2-c2ccccc21)C(=O)N[C@@H](Cc1c[nH]c2ccccc12)C(=O)N[C@@H](Cc1ccc(O)cc1)C(=O)N1CCC[C@H]1C(N)=O [(KFmoc)WYP-NH2] (Fmoc-KWYP-NH2)
IC50 against C. albicans ([1]; Tables 14-17): 255 µg/mL (≈ 313 µM)
IC50 against S. sanguis ([2]; Tables 10-13): 9 µg/mL (≈ 11.1 µM)
IC50 against E. coli [3, 5]: 66 µg/mL (≈ 81.1 µM)
IC50 against S. aureus ([4]; Tables 6-9): 9 µg/mL (≈ 11.1 µM)

NCCCC[C@H](NC(=O)OCC1c2ccccc2-c2ccccc21)C(=O)N[C@@H](Cc1c[nH]c2ccccc12)C(=O)N[C@@H](CCCCN)C(=O)NCCCC(N)=O [(KFmoc)WK(gABA)-NH2] (Fmoc-KWK[GABA]-NH2)
IC50 against C. albicans ([1]; Tables 14-17): 281 µg/mL (≈ 366 µM)
IC50 against S. sanguis ([2]; Tables 10-13): 14 µg/mL (≈ 18.3 µM)
IC50 against E. coli [3, 5]: 65 µg/mL (≈ 84.8 µM)
IC50 against S. aureus ([4]; Tables 6-9): 18 µg/mL (≈ 23.5 µM)

C[C@@H](O)[C@H](NC(=O)[C@H](CCCCN)NC(=O)[C@H](Cc1c[nH]c2ccccc12)NC(=O)[C@H](CCCCN)NC(=O)OCC1c2ccccc2-c2ccccc21)C(N)=O [(KFmoc)WKT-NH2] (Fmoc-KWKT-NH2)
IC50 against C. albicans ([1]; Tables 14-17): 260 µg/mL (≈ 332 µM)
IC50 against S. sanguis ([2]; Tables 10-13): 5 µg/mL (≈ 6.39 µM)
IC50 against E. coli [3, 5]: 42 µg/mL (≈ 53.6 µM)
IC50 against S. aureus ([4]; Tables 6-9): 7 µg/mL (≈ 8.94 µM)

CCCC[C@H](NC(=O)[C@H](NC(=O)[C@@H](CS)NC(=O)[C@H](CCCCN)NC(=O)OCC1c2ccccc2-c2ccccc21)[C@H](C)CC)C(N)=O [(KFmoc)ci(Nle)-NH2] (Fmoc-K[dC][dI][Nle]-NH2)
IC50 against C. albicans [1, 6]: 267 μg/m
IC50 against S. sanguis [2, 7]: 28 μg/m
IC50 against E. coli [3, 8]: 78 μg/m
IC50 against S. aureus [4, 9]: 22 μg/m

CSCC[C@H](NC(=O)[C@H](CCCCN)NC(=O)[C@H](Cc1c[nH]c2ccccc12)NC(=O)[C@H](CCCCN)NC(=O)OCC1c2ccccc2-c2ccccc21)C(N)=O [(KFmoc)WKM-NH2] (Fmoc-KWKM-NH2)
IC50 against C. albicans ([1]; Tables 14-17): 213 µg/mL (≈ 262 µM)
IC50 against S. sanguis ([2]; Tables 10-13): 5 µg/mL (≈ 6.15 µM)
IC50 against E. coli [3, 5]: 26 µg/mL (≈ 32 µM)
IC50 against S. aureus ([4]; Tables 6-9): 5 µg/mL (≈ 6.15 µM)

NCCCC[C@H](NC(=O)OCC1c2ccccc2-c2ccccc21)C(=O)N[C@@H](Cc1c[nH]c2ccccc12)C(=O)N[C@@H](Cc1ccc(O)cc1)C(=O)NCC(N)=O [(KFmoc)WYG-NH2] (Fmoc-KWYG-NH2)
IC50 against C. albicans ([1]; Tables 14-17): 282 µg/mL (≈ 364 µM)
IC50 against S. sanguis ([2]; Tables 10-13): 9 µg/mL (≈ 11.6 µM)
IC50 against E. coli [3, 5]: 72 µg/mL (≈ 93 µM)
IC50 against S. aureus ([4]; Tables 6-9): 9 µg/mL (≈ 11.6 µM)

CCCC[C@H](NC(=O)[C@@H](Cc1ccccc1)NC(=O)[C@H](Cc1c[nH]c2ccccc12)NC(=O)[C@H](CCCCN)NC(=O)OCC1c2ccccc2-c2ccccc21)C(N)=O [(KFmoc)Wf(Nle)-NH2] (Fmoc-KW[dF][Nle]-NH2)
IC50 against C. albicans [1, 6]: 400 μg/m
IC50 against S. sanguis [2, 7]: 12 μg/m
IC50 against E. coli [3, 8]: 46 μg/m
IC50 against S. aureus [4, 9]: 9 μg/m

NCCCC[C@H](NC(=O)OCC1c2ccccc2-c2ccccc21)C(=O)N[C@@H](Cc1c[nH]c2ccccc12)C(=O)N[C@@H](CCCCN)C(=O)N1CSC[C@H]1C(N)=O [(KFmoc)WK(Thiopro)-NH2] (Fmoc-KWK[Thz]-NH2)
IC50 against C. albicans ([1]; Tables 14-17): 223 µg/mL (≈ 280 µM)
IC50 against S. sanguis ([2]; Tables 10-13): 11 µg/mL (≈ 13.8 µM)
IC50 against E. coli [3, 5]: 64 µg/mL (≈ 80.3 µM)
IC50 against S. aureus ([4]; Tables 6-9): 12 µg/mL (≈ 15.1 µM)

NCCCC[C@H](NC(=O)OCC1c2ccccc2-c2ccccc21)C(=O)N[C@@H](Cc1c[nH]c2ccccc12)C(=O)N[C@@H](CCCCN)C(=O)N[C@@H](CCC(N)=O)C(N)=O [(KFmoc)WKQ-NH2] (Fmoc-KWKQ-NH2)
IC50 against C. albicans ([1]; Tables 14-17): 292 µg/mL (≈ 361 µM)
IC50 against S. sanguis ([2]; Tables 10-13): 9 µg/mL (≈ 11.1 µM)
IC50 against E. coli [3, 5]: 75 µg/mL (≈ 92.6 µM)
IC50 against S. aureus ([4]; Tables 6-9): 10 µg/mL (≈ 12.3 µM)

CC[C@@H](C)[C@@H](NC(=O)[C@@H](CS)NC(=O)[C@H](CCCCN)NC(=O)OCC1c2ccccc2-c2ccccc21)C(=O)NC(C)(C)C(N)=O [(KFmoc)ci(aAIB)-NH2] (Fmoc-K[dC][dI][Aib]-NH2)
IC50 against C. albicans [1, 6]: 183 μg/m
IC50 against S. sanguis [2, 7]: 5 μg/m
IC50 against E. coli [3, 8]: 22 μg/m
IC50 against S. aureus [4, 9]: 4 μg/m

CCC[C@H](NC(=O)[C@H](NC(=O)[C@@H](CS)NC(=O)[C@H](CCCCN)NC(=O)OCC1c2ccccc2-c2ccccc21)[C@H](C)CC)C(N)=O [(KFmoc)ci(Nve)-NH2] (Fmoc-K[dC][dI][Nva]-NH2)
IC50 against C. albicans [1, 6]: 78 μg/m
IC50 against S. sanguis [2, 7]: 19 μg/m
IC50 against E. coli [3, 8]: 51 μg/m
IC50 against S. aureus [4, 9]: 16 μg/m

NCCCC[C@H](NC(=O)OCC1c2ccccc2-c2ccccc21)C(=O)N[C@@H](Cc1c[nH]c2ccccc12)C(=O)N[C@@H](CCCCN)C(=O)N[C@@H](Cc1ccc([N+](=O)[O-])cc1)C(N)=O [(KFmoc)WK(NO2 F)-NH2] (Fmoc-KWK[Phe(4-NO2)]-NH2)
IC50 against C. albicans ([1]; Tables 14-17): 101 µg/mL (≈ 116 µM)
IC50 against S. sanguis ([2]; Tables 10-13): 5 µg/mL (≈ 5.72 µM)
IC50 against E. coli [3, 5]: 18 µg/mL (≈ 20.6 µM)
IC50 against S. aureus ([4]; Tables 6-9): 5 µg/mL (≈ 5.72 µM)

CC[C@@H](C)[C@@H](NC(=O)[C@@H](CS)NC(=O)[C@H](CCCCN)NC(=O)OCC1c2ccccc2-c2ccccc21)C(=O)N[C@@H](Cc1ccccc1)C(N)=O [(KFmoc)ciF-NH2] (Fmoc-K[dC][dI]F-NH2)
IC50 against C. albicans ([1]; Tables 14-17): 90 µg/mL (≈ 123 µM)
IC50 against S. sanguis ([2]; Tables 10-13): 16 µg/mL (≈ 21.9 µM)
IC50 against E. coli [3, 5]: 47 µg/mL (≈ 64.3 µM)
IC50 against S. aureus ([4]; Tables 6-9): 20 µg/mL (≈ 27.4 µM)

CCC[C@H](NC(=O)[C@@H](Cc1ccccc1)NC(=O)[C@H](Cc1c[nH]c2ccccc12)NC(=O)[C@H](CCCCN)NC(=O)OCC1c2ccccc2-c2ccccc21)C(N)=O [(KFmoc)Wf(Nve)-NH2] (Fmoc-KW[dF][Nva]-NH2)
IC50 against C. albicans [1, 6]: 118 μg/m
IC50 against S. sanguis [2, 7]: 5 μg/m
IC50 against E. coli [3, 8]: 22 μg/m
IC50 against S. aureus [4, 9]: 6 μg/m

NCCCC[C@H](NC(=O)OCC1c2ccccc2-c2ccccc21)C(=O)N[C@@H](Cc1c[nH]c2ccccc12)C(=O)N[C@@H](CCCCN)C(=O)N[C@@H](CO)C(N)=O [(KFmoc)WKS-NH2] (Fmoc-KWKS-NH2)
IC50 against C. albicans ([1]; Tables 14-17): 218 µg/mL (≈ 284 µM)
IC50 against S. sanguis ([2]; Tables 10-13): 5 µg/mL (≈ 6.5 µM)
IC50 against E. coli [3, 5]: 46 µg/mL (≈ 59.8 µM)
IC50 against S. aureus ([4]; Tables 6-9): 5 µg/mL (≈ 6.5 µM)

NCCCC[C@H](NC(=O)OCC1c2ccccc2-c2ccccc21)C(=O)N[C@@H](Cc1c[nH]c2ccccc12)C(=O)N[C@@H](CCCCN)C(=O)N[C@@H](Cc1ccccc1)C(N)=O [(KFmoc)WKF-NH2] (Fmoc-KWKF-NH2)
IC50 against C. albicans ([1]; Tables 14-17): 65 µg/mL (≈ 78.4 µM)
IC50 against S. sanguis ([2]; Tables 10-13): 6 µg/mL (≈ 7.24 µM)
IC50 against E. coli [3, 5]: 20 µg/mL (≈ 24.1 µM)
IC50 against S. aureus ([4]; Tables 6-9): 5 µg/mL (≈ 6.03 µM)
